These results are taken from US11932650B2, “Potent agelastatin derivatives as modulators for cancer invasion and metastasis” (Massachusetts Institute of Technology, priority 2017, dated 2024).

The structures appear in SMILES notation. Like-named read-outs stand apart in the source and are kept apart here.

Data set [1] concerns osteopontin (OPN) transcription. The data set can be described thus: Quantitative RT-PCR for OPN mRNA in mammary fibroblasts treated with vitamin D. The class given is cell-based, human. Conditions: for activity in blocking vitamin D-induced OPN transcription in fibroblasts: natural agelastatins A-F examined. As for the experimental part: Quantitative Reverse Transcription Polymerase Chain Reaction (RT-PCR) for OPN (FIGS. 3 and 8). Total RNA synthesis was carried out using the acid guanidinium thiocyanate-phenol-chloroform extraction method^25 per manufacturer protocol. First strand cDNA synthesis was performed using a version of Moloney murine leukemia virus reverse transcriptase per manufacturer protocol. Some mammary fibroblasts were treated with 48 hours of 10 nM vitamin D and AgA, AgE, or agelastatin derivative as indicated prior to assay. Quantitative PCR was performed in triplicate reactions in 20-μl volumes containing cDNA with cyanine dye and DNA polymerase master mix, using the following primer sets: glyceraldehyde 3-phosphate dehydrogenase (GAPDH), 5′-[…]-3′ (sense)(SEQ ID NO. 1), 5′-[…]-3′ (antisense)(SEQ ID NO. 2); OPN, 5′-[…]-3′ (sense)(SEQ ID NO. 5), 5′-[…]-3′ (antisense)(SEQ ID NO. 4). Real-time PCR parameters: 95° C. for 10 min; 95° C. for 30 s, 60° C. for 60 s, 72° C. for 60s for 40 cycles. Data analysis was done using a continuous fluorescence detector. The comparative threshold cycle (2^−ΔΔCT) value^26 was calculated following GAPDH normalization.
Effects of Agelastatin Derivatives (FIG. 8). Quantitative RT-PCR for OPN mRNA relative to GAPDH control from mammary fibroblasts treated with 48 hours of vitamin D, and AgA, AgE, or agelastatin derivatives as indicated. […] Detailed experimental methods are described above for FIG. 3.

For data set [2], the system named is SUM1315 breast cancer cells. Put plainly: 3D mixed cell spheroid co-culture invasion assay (projections per spheroid). The data set is classed as cell-based, human. The conditions noted are these: for number of projections per spheroid: Tiam1-deficient fibroblasts. The text has this: Cancer cells were co-cultured in 3D media mixture with reduction mammary fibroblasts (RMF) with either wild-type retroviral hairpin control vector (C-RMF) or Tiam1 silencing hairpin vector (shTiam-RMF).
Spheroid Co-Culture Methods (FIG. 4). Three-dimensional co-cultures with SUM1315 cells and fibroblast lines were established in phenol-red free basement membrane matrix from the Engelbreth-Holm-Swarm mouse sarcoma (medium mixture as previously described)^9 Cultures had equal volumes of DMSO, AgA, or AgE incorporated into the matrix and culture medium at the indicated concentrations. Stock solutions (1 mM) were stored in DMSO at −20° C. and diluted in culture medium to indicated final concentrations.
Number of projections per spheroid was quantified using an Eclipse TS100 inverted tissue culture microscope and depicted as number of spheroids with indicated number of projections as percent of total spheroids. At least 100 spheroids were counted for each experimental condition. Results are representative of duplicate experiments. Cells were isolated from 3D co-cultures and cancer cells were separated from fibroblasts as described previously.

Data set [3] deals with SUM1315 breast cancer cells. Put plainly: Transwell migration of post-co-culture SUM1315 cells. The class given is cell-based, human. An excerpt: Transwell Migration Assays (FIG. 5). Transwell migration of SUM1315 after isolation from mixed cell spheroid co-cultures with indicated mammary fibroblasts, with or without indicated agelastatin compound. Cultured cells were deprived of serum overnight, trypsinized, and plated at a density of 1×10^5/mL.

Data set [4] deals with SUM1315 breast cancer cells. The data set can be described thus: Tumorsphere assay of post-co-culture SUM1315 cells. The data set is classed as cell-based, human. As for the experimental part: Tumorsphere Assays (FIG. 6). The SUM1315 breast cancer cells isolated from 3D co-cultures with indicated mammary fibroblasts and indicated concentrations of AgA or AgE were trypsinized and cell clumps were broken up by gentle pipetting several times. After low-speed centrifugation (1200 rpm), cell pellets were re-suspended in corresponding culture medium, and passed through a 40-μm filter to obtain single cell suspensions. Five thousand cells in 4 mL culture medium were plated per well in ultra-low attachment 6-well plates. Tumorspheres were quantitated within 10 to 14 days in culture and sphere images were obtained on an Eclipse TS100 inverted microscope.

The test system of data set [5] is SUM1315 breast cancer cells. The data set can be described thus: Flow cytometry for CD44+/CD24-/ESA+ populations in post-co-culture SUM1315 cells. The data set is classed as cell-based, human. How it is done: Flow Cytometry Assays (FIG. 7). Populations of SUM1315 breast cancer cells were quantified by flow cytometry for expression of indicated cell surface markers using fluorophore-conjugated antibodies after isolation from 3D co-cultures with indicated fibroblasts. Aliquots of 0.5×10^6 cells in 100 μL of fluorescence-activated cell sorting buffer (phosphate-buffered saline with 2% bovine serum albumin) were stained with epithelial cell adhesion molecule epithelial specific antigen (ESA) fluorescein isothiocyanate (FITC) [clone VU-ID9, 1:10]. […] At the end of incubation, 900[…]μL of fluorescence-activated cell sorting buffer was added to the cell/antibody mixture, and cells were then analyzed using an advanced digital processing analyzer. To set background gating, other cell aliquots were stained with isotype control antibodies conjugated with corresponding fluorophore (APC mouse immunoglobulin G (IgG) subclass 2b kappa (κ); PE mouse IgG2a κ; FITC mouse IgG) so that the nonspecific CD44^+/CD24^−/ESA^+ staining represented less than 0.5% of the cell population. Cells were first gated using APC and PE to identify the CD44^+/CD24^− population, followed by secondary gating on FITC to identify the CD44^+/CD24^−/ESA^+ cells.

Data set [6] in a line: Toxicity of AgA dosing in mice (dose-toxicity experiment). The data set is classed as in vivo.
Data set [7] relates to SUM 1315, SUM159, MCF7, BT474, SKBR3, MCF10A. Put plainly: 3D co-culture invasiveness across breast cancer cell line sub-types. The data set is classed as cell-based, human. The conditions noted are these: each cell line; SUM1315 and BT474 most sensitive, MCF7 and MCF10A least sensitive; FIG. 14.
Data set [8] deals with osteopontin (OPN) transcription. Conditions: at concentrations well below the cytotoxic range; cited from earlier work.
In data set [9] the test system is SUM1315 breast cancer cells. Conditions: 3D assay system; low concentrations; cited from earlier work.
The test system of data set [10] is cell proliferation. The conditions noted are these: 75-100 nM; cited from earlier work.
In data set [11] the test system is SUM1315 breast cancer cells. The conditions noted are these: co-cultures with fibroblasts with up-regulated OPN treated, cells then implanted into mice, cited from earlier work.
Data set [12] relates to breast cancer cell line SUM1315 and Tiam1-deficient fibroblast mixed cell xenograft. The data set can be described thus: Direct treatment of mixed cell tumor-fibroblast xenograft-bearing mice. Conditions: for body weight of xenograft-bearing mice: FIG. 10A (AgA), FIG. 12A (AgE); for primary tumorigenesis: at the doses used; for lung metastasis in the mixed cell xenograft model: at tolerable doses; for mice with 0 lung metastases: FIG. 13.

[13] abbreviates: 1.25, 0.625 and 0.25 mg/kg in DMSO, 5x/week IP, FIG. 9.
The mark [14] stands for this setting: two dimensional (2D) cultures, FIG. 3.

As for `CN1C(=O)N[C@H]2[C@@H]3NC(=O)c4ccc(Br)n4[C@@H]3C[C@]21O` [AgA (1), (−)-agelastatin A], the “induction of osteopontin transcription” value in data set [1] (induced by cancer cell secreted factors as well as vitamin D) is on record as “can inhibit the induction of osteopontin transcription”. The “activity in blocking vitamin D-induced OPN transcription in fibroblasts” value (“activity” below) in data set [1] is recorded as “had the desired activity”. Also, the “number of projections per spheroid” value in [2] (75-nM concentration, FIG. 4 column 6) was “decreases the number of projections to the baseline number”. In data set [3] (75-nM concentration in the co-cultures, FIG. 5 column 6), the “transwell migration of PCC cells exposed to Tiam1-deficient fibroblasts” value (from here on “transwell migration of PCC cells exposed”) is listed as “blocked”. Moreover, the “increased numbers of tumorspheres induced by Tiam1-deficient fibroblasts” value in data set [4] (75-nM concentration, FIG. 6 column 6) is listed as “completely blocked”. Further, the “increased numbers of cancer stem cells (CD44+/CD24-/ESA+) induced by Tiam1-deficient fibroblasts” value in [5] (75-nM concentration, FIG. 7 column 6) is “completely blocked”. Also, in data set [6] (2.5 mg/kg/day, precluded further dosing, hunched posture, decreased mobility, fur ruffling, lack of weight gain (note 13)), the “toxicity on direct dosing of mice” value was “toxicity in the animals within three to four weeks”. Besides, the “induced toxicity in the mice, time from treatment initiation” value in data set [6] (2.5 mg/kg, serial-treated mice bearing breast cancer xenografts) was not above 2 weeks. In addition, in data set [6] (setting [13]), the body weight result is reported as “gained weight as expected” and the “physical signs of toxicity (fur ruffling, hunching, decreased movement)” value is reported as “none exhibited physical signs of toxicity”. In data set [7], the “increased invasiveness from co-culture with Tiam-deficient fibroblasts” value is given as “blocks the increased invasiveness”. The “vitamin D-induced transcription of osteopontin (OPN) in mammary fibroblasts” value in [8] was “inhibit vitamin D-induced transcription of osteopontin (OPN)”. In addition, the “effects of up-regulated fibroblast OPN on cancer cell adhesion, invasion, and cancer stem cell populations” value in [9] is listed as “abrogates the effects of up-regulated fibroblast OPN”. The “assay concentrations relative to cytotoxic range in cell culture” value in data set [10] is on record as “far below cytotoxic range”. For the same molecule, the “lung metastasis of cancer cells after treatment of the co-cultures” value in [11] is “completely blocked”. Besides, the “lung metastasis of cancer cells after treatment of the co-cultures” value in data set [11] (listed as AgA) is recorded as “prevents subsequent lung metastasis”. Further, in data set [12], the “body weight of xenograft-bearing mice” value is on record as “gained weight as expected”, the primary tumorigenesis result was “do not significantly impair primary tumorigenesis” and the “lung metastasis in the mixed cell xenograft model” value is on record as “effective in suppressing/preventing lung metastasis”. Besides, the “final tumor weights at the implantation site at necropsy” value in data set [12] (versus DMSO vehicle cohort, FIG. 10B, no effect on primary tumorigenesis) is “the same in all cohorts”.

Regarding `CN1C(=O)N[C@H]2[C@@H]3NC(=O)c4cc(Br)c(Br)n4[C@@H]3C[C@]21O` [AgB, agelastatin B], the “activity” value in data set [1] was “possible negative influence”.

Turning to `O=C1N[C@H]2[C@@H]3NC(=O)c4ccc(Br)n4[C@@H]3C[C@@]2(O)N1` [AgD], in data set [1], the “activity” value is “possible negative influence”.

Turning to `CO[C@@]12C[C@@H]3[C@@H](NC(=O)c4ccc(Br)n43)[C@@H]1NC(=O)N2C` [AgE (5), (−)-agelastatin E], the “activity” value in data set [1] is recorded as “had the desired activity”. In data set [1] (setting [14]), the “potency in comparison to AgA (1) in blocking stimulated OPN transcription” value was “increased potency” and the “stimulated OPN transcription” value is “consistently blocked stimulated OPN transcription”. Also, the “number of projections per spheroid” value in data set [2] (25-nM concentration, FIG. 4 column 7) is on record as “partially restores the number of projections toward baseline”. In data set [2] (50-nM concentration, FIG. 4 column 8), the “number of projections per spheroid” value is given as “decreases the number of projections to below the baseline condition”. In addition, in data set [2] (AgE 25/50 nM versus AgA 75 nM), the “potency in decreasing the invasiveness induced by Tiam1-deficient fibroblasts” value is listed as “more potent than AgA (1)”. The “transwell migration of PCC cells exposed” value in data set [3] (25-nM concentration, FIG. 5 column 7) was “decreased the migration”. The “transwell migration of PCC cells exposed” value in [3] (50-nM concentration, FIG. 5 column 8) was “decreasing the number of migrating cells below the baseline condition”. For the same molecule, the “numbers of tumorspheres induced by Tiam1-deficient fibroblasts” value in [4] (25-nM concentration, FIG. 6 column 7) was “partial effect”. For the same molecule, the tumorsphere numbers entry in data set [4] (50-nM concentration, FIG. 6 column 8) was “below baseline”. For the same molecule, the “numbers of cancer stem cells (CD44+/CD24-/ESA+)” value in [5] (25-nM concentration, FIG. 7 column 7) was “partial effect”. In addition, in [5] (50-nM concentration, FIG. 7 column 8), the “cancer stem cell (CD44+/CD24-/ESA+) numbers” value is given as “below baseline”. The “increased invasiveness from co-culture with Tiam-deficient fibroblasts” value in [7] is “blocks the increased invasiveness”. The “mice with 0 lung metastases” value in data set [12] (AgE 0.625 mg/kg) is listed as “about 80%”. The “mice with 0 lung metastases” value in [12] (AgE 1.25 mg/kg) is recorded as “all mice had 0 metastases”. Moreover, in [12], the “body weight of xenograft-bearing mice” value is on record as “gained weight as expected”, the primary tumorigenesis result is on record as “do not significantly impair primary tumorigenesis” and the “lung metastasis in the mixed cell xenograft model” value is reported as “effective in suppressing/preventing lung metastasis”. The “growth kinetics of tumor growth at the implantation site” value in [12] (versus DMSO vehicle cohort, FIG. 12B, no effect on primary tumorigenesis) is recorded as “the same in all cohorts”.

In the case of `O=C1N[C@H]2[C@@H]3NC(=O)c4cc(Br)c(Br)n4[C@@H]3C[C@@]2(O)N1` [AgF], in data set [1], the “activity” value is listed as “possible negative influence”.
